Data: the supplement of paper PMC4604168 (melanoma cell lines)
The list shows a part of the results. Most values come without repeats; read them as rough.

The molecules below were run on G361 (assay: cell count relative to DMSO control; melanoma cells; higher = more viable cells). Conditions: library dose: low library concentration; 72 h.
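Also: cell number obtained by counting DAPI-stained nuclei in high-throughput microscope images with image analysis software, screen run in 1,536-well plates.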

| Structure (SMILES) | cell count [%] |
| --- | --- |
| C=CCNC1=C2C[C@@H](C)C[C@H](OC)[C@H](O)[C@@H](C)/C=C(\C)[C@H](OC(N)=O)[C@@H](OC)/C=C\C=C(/C)C(=O)NC(=CC1=O)C2=O [Tanespimycin] + Cn1cc(/C=C2\C(=O)Nc3cccnc32)c2ccccc21 [GW441756] (first compound 0.002 µM, partner dose 0.4 µM) | 97.7 |
| CNC(=O)c1cc(Oc2ccc(NC(=O)Nc3ccc(Cl)c(C(F)(F)F)c3)cc2)ccn1 [sorafenib] + c1cc(-c2cnn3cc(-c4ccc(OCCN5CCCCC5)cc4)cnc23)ccn1 [Dorsomorphin] (first compound 0.4 µM, partner dose 0.4 µM) | 93.3 |
| C[C@@H](Oc1cc(-c2cnn(C3CCNCC3)c2)cnc1N)c1c(Cl)ccc(F)c1Cl [Crizotinib] + COc1cc(N2CCC(N3CCN(C)CC3)CC2)ccc1Nc1ncc(Cl)c(Nc2ccccc2S(=O)(=O)C(C)C)n1 [NVP-TAE684] (first compound 0.2 µM, partner dose 0.08 µM) | 105 |
| CNC(=O)c1cc(Oc2ccc(NC(=O)Nc3ccc(Cl)c(C(F)(F)F)c3)cc2)ccn1 [sorafenib] + CCCCCCCCCCCC1=C(O)C(=O)C=C(O)C1=O [Embelin] (first compound 0.4 µM, partner dose 1.2 µM) | 101 |
| CS(=O)(=O)CCNCc1ccc(-c2ccc3ncnc(Nc4ccc(OCc5cccc(F)c5)c(Cl)c4)c3c2)o1 [lapatinib] + O=C(Nc1ccccc1)c1cc([N+](=O)[O-])ccc1Cl [GW9662] (first compound 0.8 µM, partner dose 2 µM) | 108 |
| CS(=O)(=O)CCNCc1ccc(-c2ccc3ncnc(Nc4ccc(OCc5cccc(F)c5)c(Cl)c4)c3c2)o1 [lapatinib] + COc1ccc2c(c1)CCC1C2CCC2(C)C(NCCCCCCN3C(=O)C=CC3=O)CCC12 [U73122] (first compound 0.8 µM, partner dose 0.4 µM) | 82.3 |
| CNC(=O)c1cc(Oc2ccc(NC(=O)Nc3ccc(Cl)c(C(F)(F)F)c3)cc2)ccn1 [sorafenib] + O=C(Nc1ccccc1)c1cc([N+](=O)[O-])ccc1Cl [GW9662] (first compound 0.4 µM, partner dose 2 µM) | 123 |
| CS(=O)(=O)CCNCc1ccc(-c2ccc3ncnc(Nc4ccc(OCc5cccc(F)c5)c(Cl)c4)c3c2)o1 [lapatinib] + COc1ccc(-c2ccc3c(N4CCOCC4)nc(N4C[C@@H](C)O[C@@H](C)C4)nc3n2)cc1CO [KU0063794] (first compound 0.8 µM, partner dose 0.02 µM) | 117 |
| CS(=O)(=O)CCNCc1ccc(-c2ccc3ncnc(Nc4ccc(OCc5cccc(F)c5)c(Cl)c4)c3c2)o1 [lapatinib] + O=C1NC(=O)/C(=C/c2ccc(-c3ccc(F)cc3O)o2)S1 [AS252424] (first compound 0.8 µM, partner dose 1 µM) | 90.9 |
| CNC(=O)c1cc(Oc2ccc(NC(=O)Nc3ccc(Cl)c(C(F)(F)F)c3)cc2)ccn1 [sorafenib] + COc1cc(N2CCC(N3CCN(C)CC3)CC2)ccc1Nc1ncc(Cl)c(Nc2ccccc2S(=O)(=O)C(C)C)n1 [NVP-TAE684] (first compound 0.4 µM, partner dose 0.08 µM) | 92.5 |
| CN1CCN(c2ccc3nc(-c4c(N)c5c(F)cccc5[nH]c4=O)[nH]c3c2)CC1 [Dovitinib] + COc1cc2ncnc(Nc3ccc(Oc4ccccc4)cc3)c2cc1OC [SrcI1] (first compound 0.1 µM, partner dose 2 µM) | 91.5 |
| CN1CCN(c2ccc3nc(-c4c(N)c5c(F)cccc5[nH]c4=O)[nH]c3c2)CC1 [Dovitinib] + CC(C)CCN1c2nc(Nc3cc(F)c(O)c(F)c3)ncc2N(C)C(=O)C1C [BID1870] (first compound 0.1 µM, partner dose 0.2 µM) | 92.2 |
| CN1CCN(c2ccc3nc(-c4c(N)c5c(F)cccc5[nH]c4=O)[nH]c3c2)CC1 [Dovitinib] + O=C1NC(=O)/C(=C/c2ccc(-c3ccc(F)cc3O)o2)S1 [AS252424] (first compound 0.1 µM, partner dose 1 µM) | 91.9 |
| C=CCNC1=C2C[C@@H](C)C[C@H](OC)[C@H](O)[C@@H](C)/C=C(\C)[C@H](OC(N)=O)[C@@H](OC)/C=C\C=C(/C)C(=O)NC(=CC1=O)C2=O [Tanespimycin] + CCN(CC)CCCCNc1ncc2cc(-c3cc(OC)cc(OC)c3)c(NC(=O)NC(C)(C)C)nc2n1 [PD173074] (first compound 0.002 µM, partner dose 0.1 µM) | 111 |
| C[C@@H](Oc1cc(-c2cnn(C3CCNCC3)c2)cnc1N)c1c(Cl)ccc(F)c1Cl [Crizotinib] + CCCCCCCCCCCC1=C(O)C(=O)C=C(O)C1=O [Embelin] (first compound 0.2 µM, partner dose 1.2 µM) | 99.7 |
| CN1CCN(c2ccc3nc(-c4c(N)c5c(F)cccc5[nH]c4=O)[nH]c3c2)CC1 [Dovitinib] + CCCCCCCCCCCC1=C(O)C(=O)C=C(O)C1=O [Embelin] (first compound 0.1 µM, partner dose 1.2 µM) | 99.5 |
| CN1CCN(c2ccc3nc(-c4c(N)c5c(F)cccc5[nH]c4=O)[nH]c3c2)CC1 [Dovitinib] + CCN(CC)CCCCNc1ncc2cc(-c3cc(OC)cc(OC)c3)c(NC(=O)NC(C)(C)C)nc2n1 [PD173074] (first compound 0.1 µM, partner dose 0.1 µM) | 86.6 |
| CS(=O)(=O)CCNCc1ccc(-c2ccc3ncnc(Nc4ccc(OCc5cccc(F)c5)c(Cl)c4)c3c2)o1 [lapatinib] + COC(=O)c1sccc1S(=O)(=O)Nc1ccc(Nc2ccccc2)cc1OC [GSK0660] (first compound 0.8 µM, partner dose 1 µM) | 89 |
| C=CCNC1=C2C[C@@H](C)C[C@H](OC)[C@H](O)[C@@H](C)/C=C(\C)[C@H](OC(N)=O)[C@@H](OC)/C=C\C=C(/C)C(=O)NC(=CC1=O)C2=O [Tanespimycin] + COC(=O)c1sccc1S(=O)(=O)Nc1ccc(Nc2ccccc2)cc1OC [GSK0660] (first compound 0.002 µM, partner dose 1 µM) | 104 |
| C[C@@H](Oc1cc(-c2cnn(C3CCNCC3)c2)cnc1N)c1c(Cl)ccc(F)c1Cl [Crizotinib] + O=S(=O)(c1ccccc1)N(CC(F)(F)F)c1ccc(C(O)(C(F)(F)F)C(F)(F)F)cc1 [T0901317] (first compound 0.2 µM, partner dose 1.4 µM) | 72.6 |
| C=CCNC1=C2C[C@@H](C)C[C@H](OC)[C@H](O)[C@@H](C)/C=C(\C)[C@H](OC(N)=O)[C@@H](OC)/C=C\C=C(/C)C(=O)NC(=CC1=O)C2=O [Tanespimycin] + CCCCCCCCCCCC1=C(O)C(=O)C=C(O)C1=O [Embelin] (first compound 0.002 µM, partner dose 1.2 µM) | 93.2 |
| CNC(=O)c1cc(Oc2ccc(NC(=O)Nc3ccc(Cl)c(C(F)(F)F)c3)cc2)ccn1 [sorafenib] + COC(=O)c1sccc1S(=O)(=O)Nc1ccc(Nc2ccccc2)cc1OC [GSK0660] (first compound 0.4 µM, partner dose 1 µM) | 83.8 |
| CNC(=O)c1cc(Oc2ccc(NC(=O)Nc3ccc(Cl)c(C(F)(F)F)c3)cc2)ccn1 [sorafenib] + CCN(CC)CCCCNc1ncc2cc(-c3cc(OC)cc(OC)c3)c(NC(=O)NC(C)(C)C)nc2n1 [PD173074] (first compound 0.4 µM, partner dose 0.1 µM) | 98.3 |
| CN1CCN(c2ccc3nc(-c4c(N)c5c(F)cccc5[nH]c4=O)[nH]c3c2)CC1 [Dovitinib] + O=c1cc(-c2cccc3c2Sc2ccccc2S3)oc(N2CCOCC2)c1 [KU55933] (first compound 0.1 µM, partner dose 1 µM) | 101 |
| C=CCNC1=C2C[C@@H](C)C[C@H](OC)[C@H](O)[C@@H](C)/C=C(\C)[C@H](OC(N)=O)[C@@H](OC)/C=C\C=C(/C)C(=O)NC(=CC1=O)C2=O [Tanespimycin] + O=C1NC(=O)/C(=C/c2ccc(-c3ccc(F)cc3O)o2)S1 [AS252424] (first compound 0.002 µM, partner dose 1 µM) | 91.8 |
| C=CCNC1=C2C[C@@H](C)C[C@H](OC)[C@H](O)[C@@H](C)/C=C(\C)[C@H](OC(N)=O)[C@@H](OC)/C=C\C=C(/C)C(=O)NC(=CC1=O)C2=O [Tanespimycin] + O=C(O)C(=O)Nc1sc2c(c1C(=O)O)CCNC2 [TCS401] (first compound 0.002 µM, partner dose 1.66667 µM) | 95 |
| C=CCNC1=C2C[C@@H](C)C[C@H](OC)[C@H](O)[C@@H](C)/C=C(\C)[C@H](OC(N)=O)[C@@H](OC)/C=C\C=C(/C)C(=O)NC(=CC1=O)C2=O [Tanespimycin] + COc1ccc2c(c1)CCC1C2CCC2(C)C(NCCCCCCN3C(=O)C=CC3=O)CCC12 [U73122] (first compound 0.002 µM, partner dose 0.4 µM) | 103 |
| CNC(=O)c1cc(Oc2ccc(NC(=O)Nc3ccc(Cl)c(C(F)(F)F)c3)cc2)ccn1 [sorafenib] + N#Cc1c(O)c2c(-c3ccc(-c4ccccc4O)cc3)csc2[nH]c1=O [A769662] (first compound 0.4 µM, partner dose 2 µM) | 85.5 |
